Experimental data: US20060159695A1

Target: RSV F protein on human RSV virus (Long strain) (human RSV, Long strain)
Test: cell-based or functional assay

B1: Fab 020 (Fab, V domains shown)
VH: [… about 120 residues …]
VL: DIVMTQSPDSLAVSLGERATINCRASDSVDLFGQSYMHWYQQKPGQPPKLLIYAASNPESGVPDRFSGSGSGTDFTLTISSLQAEDVAVYYCQQIIADPWTFGQGTKVEIK
Viral Neut (fold increase over wild-type B23 Fab): 8 fold
